Assay results: the supplement of paper PMC10338343
± gives the standard deviation. In all, about 6,600 sequences were measured (“pre-steady-state target cleavage rate”: median about 0.07, highest 2% from about 0.72 on). This is a selection; strong and weak results do not stand in their true shares.

system: MIWI (PIWIL1) piRISC loaded with Kctd7 piRNA (30 nt); experiment: pre-steady-state target cleavage rate (min^-1); MIWI and MILI are mouse PIWI proteins and EfPiwi is from a freshwater sponge; tags in brackets are library labels; higher = faster piRNA-guided slicing of the target; details: guide: Kctd7 piRNA 5'p-UGUUAAUCUCUCAGAGAAGGUGACAGUGAU; auxiliary factor: 500 nM mouse GTSF1
Summary of the method: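 Active affinity-purified piRISC (1 nM) loaded with one synthetic guide was mixed with a transcribed, DNA-blocked target RNA library (0.1 nM), with or without 500 nM GTSF1 partner protein, in HEPES–potassium acetate buffer at 33 °C for 0–8 or 0–960 min. Uncleaved targets were sequenced, normalised to depth and to weakly complementary targets, and pooled across three trials, with k3 capped at 0.0001 min^-1. The pre-steady-state cleavage rate was determined with a burst-and-steady-state fit.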

Row | Sequence | pre-steady-state target cleavage rate
1 | UAGUGACAGACCAUCUCUGAGAGUUUAACA | 0.00779 ± 0.0032
2 | UACACACUCACCUUCUCUGAGAGAUAUUGA | 0.0508 ± 0.021
3 | UACACUGUCACCUUCACUGAGAGAUAAACA | 0.175 ± 0.024
4 | UAGUGACACACCUUGUCAGAGAGAUUAACA | 0.0179 ± 0.005
5 | AUAACUGUCACCUUCUCUGAGAGAUUAACA | 0.675 ± 0.03
6 | UAGUGACACACCUUACUCUGAGAGAUUAACA | 0.0931 ± 0.0083
7 | UAGUGACAGCCCUUCUCUGAGAGAUUAACA | 0.184 ± 0.019
8 | UUCAGUGACACCUUCUCUGAGAGAUUAACA | 0.502 ± 0.027
9 | UUCACUGUCACCUUCUCUGAGAGUAUUUGA | 0.276 ± 0.071
10 | UAGUGACUCACCUUGCUCUGAGAGAUUAACA | 0.03 ± 0.0057
11 | UACACUGUGACCUUCUCAGAGAGAUUAACA | 0.185 ± 0.013
12 | UAGUGACACACCAUCUCUGAGAGAUUAUGA | 0.00476 ± 0.0034
13 | UAGUGAGUCACCUUGUCUGAGAGAUUAUGA | 0.0155 ± 0.0053
14 | UAGUCUGUCACCUUCUCUGAGAGGUUAACA | 0.389 ± 0.033
15 | UUCUCUCUCACCUUCUCUGAGAGAUUAACA | 0.221 ± 0.015
16 | UAGACUGUCACCUACUCUGUGAGAUUAACA | 0.166 ± 0.013
17 | UUCACUCUCACCUUCUCUGAGAGAUAUUGA | 0.0274 ± 0.0094
18 | AUCUCUGUCACCUUCUCUGAGUGAUUAACA | 0.0518 ± 0.0093
19 | AUCACUCUCACCUUGUCUGAGAGAUUAACA | 0.253 ± 0.025
20 | AUCACACACACCUUCUCUGAGAGAUUAAGA | 0.187 ± 0.034
21 | UAGUGUGUCACCUUCUCUGAGAGUAUAAGA | 0.0129 ± 0.0064
22 | UAGUGACAGACCUUCUCUGAGAGAUUAAUCA | 0.0736 ± 0.012
23 | UAGUGACUCACCUUCUCAGAGAGUUUAACA | 0.0338 ± 0.0068

Row | Sequence | pre-steady-state target cleavage rate
24 | UAGUGACAGUCCUUCACUGAGAGUUUAACA | 0.00412 ± 0.0031
25 | UACACUGUCACCUUCUCUGAGAGUAUAUGA | 0.0187 ± 0.013
26 | UAGACUGACACCUUCUCUGAGAGAUUAAGA | 0.171 ± 0.029
27 | UAGUGACACUGCUUCUCUGAGAGAUUAAGA | 0.0288 ± 0.0053
28 | AUGUGUGUCACCUUCUCUGAGAGAUAUUGA | 0.0536 ± 0.017
29 | UACACUGUCAGCUUCUCAGAGAGAUUAACA | 0.276 ± 0.022
30 | UACACUGUCUCCUUCUCUGAGUGAUUAACA | 0.0287 ± 0.0061
31 | UAGUCUGUCACCUUCUCUGAUAGAUUAACA | 0.242 ± 0.015
32 | UACACAUGUCACCUUCUCUGAGAGAUUAACA | 0.462 ± 0.023
33 | AUCACUGUCACCAUCUCUCAGAGAUUAACA | 0.0702 ± 0.0098
34 | UACACUGUCUCCUUCUCUGAGAGAUUAUGA | 0.0612 ± 0.017
35 | AUCACUCUCACCUUCUCUCAGAGAUUAACA | 0.103 ± 0.0076
36 | UAGUGAGUCACCUUCUCUUAGAGAUUAACA | 0.373 ± 0.025
37 | UAGUGACAGACAUUCUCUGAGAGAUUAACA | 0.00694 ± 0.0032
38 | UACACUGUCACCUUCUCUCAGAGUUUAACA | 0.0639 ± 0.01
39 | UAGUGAUUCACCUUCUCUGAGAGAUUAACA | 0.568 ± 0.033
40 | UAGUGACAGUGCUUCUCUGAGAGAUUAACU [g2:g19:cont:t1U] | 0.00941 ± 0.003
41 | UAGUGUCUGACCUUCUCUGAGAGAUUAACA | 0.399 ± 0.025
42 | UAGUGAGUCAUCUUCUCUGAGAGAUUAACA | 0.66 ± 0.034
43 | UACUCUGUCACCUUCUCUGUGAGAUUAACA | 0.286 ± 0.013
44 | UAGACAGUCACCUUGUCUGAGAGAUUAACA | 0.293 ± 0.029
45 | UAGUGACAAACCUUCUCUGAGAGAUUAACA | 0.159 ± 0.013
46 | UAGUGACUCACCUUCUGUGAGAGAUUAACA | 0.5 ± 0.042

Row | Sequence | pre-steady-state target cleavage rate
47 | UACACAGUCACCUUCUCUGAGAGAUUAUGA | 0.0769 ± 0.019
48 | UAGUGACACACCUCUCUCUGAGAGAUUAACA | 0.155 ± 0.016
49 | UAGACUGUCACCAUCUCUGAGUGAUUAACA | 0.0118 ± 0.0013
50 | AUCACUGUCACCUUCUCUGAGAGUAUUUGA | 0.109 ± 0.034
51 | UAGACUGUCACCUUCUGACUCUCUAAUUGA [g15:g27:cont:t1A] | < 0.0001
52 | UAGUGUGUCACCUUCUCUCAGAGAUUAACA | 0.0919 ± 0.0083
53 | UAGUGAGUCACGCUUCUCUGAGAGAUUAACA | 0.38 ± 0.022
54 | AUCACUGUCACCUUCUCUGAGAUGAUUAACA | 0.0333 ± 0.011
55 | UAGUGACAGAGCUUCUGUGAGAGAUUAACA | 0.00423 ± 0.0031
56 | UUCACUGACACCUUCUCUCAGAGAUUAACA | 0.103 ± 0.009
57 | AUCACUGUCACCUUCUGAGAGAGAUUAAGA | 0.0485 ± 0.013
58 | UAGACUCUCACCUUCUCUGAGAGUUUAACA | 0.108 ± 0.012
59 | UAGUCUGUCACCUUCUUCUGAGAGAUUAACA | 0.0776 ± 0.022
60 | UAGACUGUCACCUUCUCUGAGAUGAUUAACA | 0.00962 ± 0.0026
61 | UAGACUGUCACCUUCUCAGAGACAUUAACA | 0.153 ± 0.017
62 | UAGUCUGUCACCUUCUCUGAGAGAUUAGCA | 0.119 ± 0.021
63 | UAGUGACACACCUUCUCUGUGAGUUUAACA | 0.0493 ± 0.0058
64 | UUCACUGUCACCUUCUCUCUCAGAUUAUGA | 0.00591 ± 0.0035
65 | UAGUCUGUCACCUUCUCUGAGAGUUAACA | 0.24 ± 0.069
66 | AUCACUGUCACCUUCUCUGAGAGGAUUAACA | 0.431 ± 0.043
67 | UAGUGACACACCAUCUCUGAGUGAUUAACA | 0.014 ± 0.0034
68 | UAGUGUGACACCUUCUCUGAGACAUUAACA | 0.0627 ± 0.01
69 | UAGUGACAGACCUUCUCUGAGAGUAUUAACA | 0.0381 ± 0.0067

Row | Sequence | pre-steady-state target cleavage rate
70 | UAGUGAGUCACCUUCUCUGAGAUAUUAACA | 0.26 ± 0.032
71 | UAGACUGUCCCCUUCUCUGAGAGAUUAACA | 0.696 ± 0.049
72 | UUCACAGUCACGUUCUCUGAGAGAUUAACA | 0.685 ± 0.027
73 | AUCACUGUCACGUUCUCUGAGAGAUAUUGA | 0.00377 ± 0.0033
74 | UAGUGACAGACGCUUCUCUGAGAGAUUAACA | 0.0268 ± 0.006
75 | UUCACUGUCACCUUCUCAGAGAGAUUAUCA | 0.186 ± 0.041
76 | UAGUGUGUCUCCUUCUCUGAGAGAUUAAGA | 0.081 ± 0.02
77 | UAGUGAGUCACCUUUCUGAGAGAUUAACA | 0.35 ± 0.03
78 | UAGUGUGUCACCUUCUCAGAGAGAUUUACA | 0.239 ± 0.032
79 | UAGUGAGUCUGCUUCUCUGAGAGAUUAAGA | 0.0359 ± 0.0074
80 | UAGACUGUCACCUUCCUCUGAGAGAUUAACA | 0.44 ± 0.028
81 | UAGUGACACUCGUUCUCUGAGAGAUUAACA | 0.0919 ± 0.008
82 | UAGUCUGAUCACCUUCUCUGAGAGAUUAACA | 0.652 ± 0.036
83 | UAGUGACACACCUUCUCAGAGAGAUUAAGA | 0.0233 ± 0.0077
84 | UAGACACACACCUUCUCUGAGAGAUUAAGA | 0.201 ± 0.037
85 | UAGUGUGUUACCUUCUCUGAGAGAUUAACA | 0.327 ± 0.025
86 | UAGAGUGUCACCUUCUCUGAGAGAUUAUGA | 0.142 ± 0.026
87 | UAGACUGUCACCUUGUCUGAGUGAUUAACA | 0.0247 ± 0.0041
88 | UAGUGACUGUGCUUCUCUGAGAGAUUAACA | 0.0581 ± 0.0074
89 | UAGUGAGUCACCUUCUCUGAGAGAUUAAGCA | 0.323 ± 0.051
90 | UAGUGAGUCACCUUCUCAGAGACAUUAACA | 0.158 ± 0.02
91 | UACACUGUCACCUUGUCUGAGAGAAUAACA | 0.103 ± 0.032
